According to the supplement of paper PMC12582362:
Where a name gives a salt, the structure may show the parent alone. The whole screen tested about 1,500 compounds, of which about 30 (2%) showed activity.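 The calls were made as follows: active = robust z-score below -2; a few such results were not called.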 The list shows a part of the results.

test system: optoTopBP1 Flp-In 293 T-REx (HEK293) cells; test: light-induced TopBP1 condensate (nuclear foci) count, plate-normalised robust z-score vs non-control wells; higher = more TopBP1 condensates (negative = condensation inhibitor), active = hit call of the paper; details: 10 µM; incubation time 2 h

Compound | light-induced TopBP1 condensate (z-score)
N=C(N)NC(=O)c1nc(Cl)c(N)nc1N [Amiloride hydrochloride dihydrate] | inactive: 0.285
CCCCOC(=O)c1ccc(N)cc1 [Butamben] | inactive: 1.14
N[C@@H]1CCCCN(c2c(F)cc3c(=O)c(C(=O)O)cn(C4CC4)c3c2Cl)C1 [Besifloxacin hydrochloride] | inactive: -0.0694
CC[C@H]1OC(=O)[C@H](C)[C@@H](O[C@H]2C[C@@](C)(OC)[C@@H](O)[C@H](C)O2)[C@H](C)[C@@H](O[C@@H]2O[C@H](C)C[C@H](N(C)C)[C@H]2O)[C@](C)(OC)C[C@@H](C)C(=O)[C@H](C)[C@@H](O)[C@]1(C)O [Clarithromycin] | inactive: 0.467
CCOc1ccccc1OCC1CNCCO1 (stereo not drawn) [Viloxazine hydrochloride] | inactive: 0.74
NC(=O)Cc1cccc(C(=O)c2ccccc2)c1N [Nepafenac] | inactive: 0.184
CC(C)COC(=O)OCN1C(=O)CN(CCN2CC(=O)N(COC(=O)OCC(C)C)C(=O)C2)CC1=O [Sobuzoxane] | inactive: 0.7
CCCCC1=NC2(CCCC2)C(=O)N1Cc1ccc(-c2ccccc2-c2nnn[nH]2)cc1 [Irbesartan] | inactive: -0.971
COCC1=C(C(=O)OC(C)OC(=O)OC(C)C)N2C(=O)[C@@H](NC(=O)/C(=N\OC)c3csc(N)n3)[C@H]2SC1 (stereo partly drawn) [Cefpodoxime proxetil] | inactive: -1.06
CCN(CC)CCOC(=O)C(c1ccccc1)C1CCCCC1 (stereo not drawn) [Drofenine hydrochloride] | inactive: 0.242
O=C(CCCN1CCC(O)(c2ccc(Br)cc2)CC1)c1ccc(F)cc1 [Bromperidol] | inactive: -0.747
CC(C(=O)O)c1ccc(N2CC=CC2)c(Cl)c1 (stereo not drawn) [Pirprofen] | inactive: 0.653
CO[C@@]1(NC(=O)Cc2cccs2)C(=O)N2C(C(=O)O)=C(COC(N)=O)CS[C@@H]21 [Cefoxitin sodium salt] | inactive: 0.497
CC(=O)c1ccc2c(c1)N(CCCN1CCC(CCO)CC1)c1ccccc1S2 [Piperacetazine] | inactive: -0.657
COC(=O)C1=C(C)NC(C)=C(C(=O)O[C@H]2CCN(Cc3ccccc3)C2)[C@H]1c1cccc([N+](=O)[O-])c1 [Barnidipine Hydrochloride] | inactive: -1.06
C=CCOc1ccc(CC(=O)O)cc1Cl [Alclofenac] | inactive: 0.0679
CCCCC(CC)CN1CN(CC(CC)CCCC)CC(C)(N)C1 (stereo not drawn) [Hexetidine] | inactive: -0.633
COc1cc2c(cc1OC)C(=O)C(CC1CCN(Cc3ccccc3)CC1)C2 (stereo not drawn) [Donepezil hydrochloride] | inactive: -1.01
CN(C)c1ccc2nc3ccc(=[N+](C)C)cc-3sc2c1 [Methylene blue] | active: -8.05
Cc1cccc(C)c1NC(=O)C1CCCCN1C (stereo not drawn) [Mepivacaine hydrochloride] | inactive: 0.0803
COc1ccc(C2C(=O)c3ccccc3C2=O)cc1 [Anisindione] | inactive: 0.789
CN1C(C(=O)Nc2ccccn2)=C(O)c2sccc2S1(=O)=O [Tenoxicam] | inactive: 0.103
Cc1ncc([N+](=O)[O-])n1CC(O)CCl (stereo not drawn) [Ornidazole] | inactive: 0.357

Compound | light-induced TopBP1 condensate (z-score)
C[C@]12CC[C@H]3C(=CCc4cc(O)ccc43)[C@@H]1CCC2=O [Equilin] | inactive: 0.0892
C=C[C@H]1CN2CC[C@H]1C[C@@H]2[C@@H](O)c1ccnc2ccc(OC)cc12 [Quinidine hydrochloride monohydrate] | inactive: -1.31
Cn1c(=O)c2[nH]cnc2n(C)c1=O [Aminophylline] | inactive: 0.624
CS(=O)(=O)c1ccc(C2=C(c3ccccc3)C(=O)OC2)cc1 [Rofecoxib] | inactive: 1.03
CN(C)CCC=C1c2ccccc2CCc2ccccc21 [Amitryptiline hydrochloride] | inactive: -0.226
Cc1ccnc2c1NC(=O)c1cccnc1N2C1CC1 [Nevirapine] | inactive: -0.183
Cc1[nH]c(=O)c(C#N)cc1-c1ccncc1 [Milrinone] | inactive: 1.01
CC(=O)N[C@@H](CCC(N)=O)C(=O)O [Acetyl-L-glutamine] | inactive: -0.0671
CN(C)CC/C=C1\c2ccccc2CSc2ccccc21 [Dosulepin hydrochloride] | inactive: 0.0482
CC(C)(Oc1ccc(Cl)cc1)C(=O)O [Clofibric acid] | inactive: -0.339
Cn1c(=O)c2c(ncn2CC(=O)O)n(C)c1=O [Acefylline] | inactive: 0.889
O=C(O)C1CSCN1 (stereo not drawn) [Timonacic] | inactive: -0.605
CO[C@H]1C[C@H](O[C@H]2[C@H](C)[C@@H](O[C@@H]3O[C@H](C)C[C@H](N(C)C)[C@H]3OC(C)=O)[C@@H](C)C[C@@]3(CO3)C(=O)[C@H](C)[C@@H](OC(C)=O)[C@@H](C)[C@@H](C)OC(=O)[C@@H]2C)O[C@@H](C)[C@@H]1OC(C)=O [Troleandomycin] | inactive: 0.939
Cc1cc(C(=O)NNCc2ccccc2)no1 [Isocarboxazid] | inactive: -0.0175
COc1cc(OC)c(C(=O)CCCN2CCCC2)c(OC)c1 [Buflomedil hydrochloride] | inactive: -0.012
N#CC(c1ccc(Cl)cc1)c1c(Cl)cc(-n2ncc(=O)[nH]c2=O)cc1Cl (stereo not drawn) [Diclazuril] | inactive: -0.132
CNC(=O)OCc1cccc(COC(=O)NC)n1 [Pyricarbate] | inactive: 0.0628
CCN1C(=O)NC(c2ccccc2)C1=O (stereo not drawn) [Ethotoin] | inactive: 0.403
CN1CCC(=C2c3ccccc3CC(=O)c3sccc32)CC1 [Ketotifen fumarate] | inactive: 0.179
CN1CCCC(CC2c3ccccc3Sc3ccccc32)C1 (stereo not drawn) [Metixene hydrochloride] | inactive: -0.0636
COc1ccccc1N1CCN(CC(O)COc2cccc3ccccc23)CC1 (stereo not drawn) [Naftopidil dihydrochloride] | inactive: 0.998
CC(COc1ccccc1)NN (stereo not drawn) [Phenoxypropazine dihydrochloride] | inactive: 0.724
COc1ccc2c(c1)N(C[C@H](C)CN(C)C)c1ccccc1S2 [Methotrimeprazine maleat salt] | inactive: -1.01

Compound | light-induced TopBP1 condensate (z-score)
CCCN(CCC)C(=O)C(CCC(=O)O)NC(=O)c1ccccc1 (stereo not drawn) [Proglumide] | inactive: 0.915
CC(C)(Sc1cc(C(C)(C)C)c(O)c(C(C)(C)C)c1)Sc1cc(C(C)(C)C)c(O)c(C(C)(C)C)c1 [Probucol] | inactive: 0.588
CS(=O)(=O)CCNCc1ccc(-c2ccc3ncnc(Nc4ccc(OCc5cccc(F)c5)c(Cl)c4)c3c2)o1 [Lapatinib] | inactive: 0.341
Nc1c(Br)cc(Br)cc1CN[C@H]1CC[C@H](O)CC1 [Ambroxol hydrochloride] | inactive: 0.333
Cn1ccnc1S [Methimazole] | inactive: -0.456
CCC(=O)c1ccc(O)cc1 [Paroxypropione] | inactive: 0.215
O=c1cc(-c2ccc(O)c(O)c2)oc2cc(O)cc(O)c12 [Luteolin] | inactive: -0.31
CC(C)(C(=O)c1cccnc1)c1cccnc1 [Metyrapone] | inactive: -0.113
CC(C)(S)C(N)C(=O)O (racemic) [D,L-Penicillamine] | inactive: 1.98
CC(=O)N(O)CCCCCNC(=O)CCC(=O)N(O)CCCCCNC(=O)CCC(=O)N(O)CCCCCN [Deferoxamine mesylate] | inactive: 0.967
CC(C)/N=c1\cc2n(-c3ccc(Cl)cc3)c3ccccc3nc-2cc1Nc1ccc(Cl)cc1 [Clofazimine] | inactive: -0.176
O=C1Cc2cc(CCN3CCN(c4nsc5ccccc45)CC3)c(Cl)cc2N1 [Ziprasidone  Hydrochloride] | inactive: -0.964
CCN[C@H]1C[C@H](C)S(=O)(=O)c2sc(S(N)(=O)=O)cc21 [Dorzolamide hydrochloride] | inactive: -0.91
CCCC(=O)N1CCCN(c2nc(N)c3cc(OC)c(OC)cc3n2)CC1 [Bunazosin hydrochloride] | inactive: 0.537
CO[C@@]1(NC(=O)CSCC#N)C(=O)N2C(C(=O)O)=C(CSc3nnnn3C)CS[C@@H]21 [Cefmetazole sodium salt] | inactive: 0.556
C[C@@H]1[C@H](O)[C@@H](C)/C=C/C=C/C=C/C=C/C=C/C=C/C=C/[C@H](O[C@@H]2O[C@H](C)[C@@H](O)[C@H](N)[C@@H]2O)C[C@@H]2O[C@](O)(C[C@@H](O)C[C@@H](O)[C@H](O)CC[C@@H](O)C[C@@H](O)CC(=O)O[C@H]1C)C[C@H](O)[C@H]2C(=O)O [Amphotericin B] | inactive: 0.0853
CCOC(=O)C(C)(C)Oc1ccc(Cl)cc1 [Clofibrate] | inactive: 0.172
CC(C)NC[C@H](O)COc1ccc(CC(N)=O)cc1 [(S)-(-)-Atenolol] | inactive: 0.134
CN1C2=CC(=O)/C(=N\NC(N)=O)C=C2CC1S(=O)(=O)O (stereo not drawn) [Carbazochrome sodium sulfonate] | inactive: -0.462
CCC(Cc1c(I)cc(I)c(N)c1I)C(=O)O (stereo not drawn) [Iopanoic acid] | inactive: 1.03
CCC(NC(C)C)C(O)c1ccc(O)c(O)c1 (stereo not drawn) [Isoetharine mesylate salt] | inactive: 0.926
CN1CCc2cccc3c2[C@H]1Cc1ccc(O)c(O)c1-3 [R(-) Apomorphine hydrochloride hemihydrate] | inactive: 0.989
